# Reference: the supplement of paper PMC8728848
# Some of the results follow.
# Legend:
# Test in all cases: glycan array binding signal (z-score within array); higher = stronger binding
# Details in all cases: glycan notation: IUPAC condensed, linker removed
# Fuc(a1-2)GlcNAc = molecular target: Fuc(a1-2)GlcNAc
# In short: (§1)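 From the Consortium for Functional Glycomics database, 3228 arrays were curated, keeping only those whose protein sequence was available. Binding is given as a within-array Z-score averaged across arrays sharing a protein sequence and across linkers. Negative Z-scores can be read as non-binding.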
# Fuc(a1-2)[Gal(a1-3)]Gal = molecular target: Fuc(a1-2)[Gal(a1-3)]Gal
# In short: as §1
# [1] = molecular target: Fuc(a1-2)[Gal(a1-3)]Gal(b1-3)GlcNAc
# In short: as §1
# [2] = molecular target: Fuc(a1-2)[Gal(a1-3)]Gal(b1-3)GlcNAc(b1-2)Man(a1-3)[Fuc(a1-2)[Gal(a1-3)]Gal(b1-3)GlcNAc(b1-2)Man(a1-6)]Man(b1-4)GlcNAc(b1-4)GlcNAc
# In short: as §1
# [3] = molecular target: Fuc(a1-2)[Gal(a1-3)]Gal(b1-4)Glc
# In short: as §1
# [4] = molecular target: Fuc(a1-2)[Gal(a1-3)]Gal(b1-4)GlcNAc
# In short: as §1
# [5] = molecular target: Fuc(a1-2)[Gal(a1-3)]Gal(b1-4)GlcNAc(b1-2)Man(a1-3)[Fuc(a1-2)[Gal(a1-3)]Gal(b1-4)GlcNAc(b1-2)Man(a1-6)]Man(b1-4)GlcNAc(b1-4)GlcNAc
# In short: as §1
# [6] = molecular target: Fuc(a1-2)[Gal(a1-3)]Gal(b1-4)[Fuc(a1-3)]GlcNAc
# In short: as §1
# [7] = molecular target: Fuc(a1-2)[Gal(a1-4)]Gal(b1-4)GlcNAc
# In short: as §1
# [8] = molecular target: Fuc(a1-2)[GalNAc(a1-3)]Gal
# In short: as §1
# [9] = molecular target: Fuc(a1-2)[GalNAc(a1-3)]Gal(b1-3)GalNAc(a1-3)[Fuc(a1-2)]Gal(b1-4)GlcNAc
# In short: as §1
# [10] = molecular target: Fuc(a1-2)[GalNAc(a1-3)]Gal(b1-3)GlcNAc
# In short: as §1
# [11] = molecular target: Fuc(a1-2)[GalNAc(a1-3)]Gal(b1-3)GlcNAc(b1-2)Man(a1-3)[Fuc(a1-2)[GalNAc(a1-3)]Gal(b1-3)GlcNAc(b1-2)Man(a1-6)]Man(b1-4)GlcNAc(b1-4)GlcNAc
# In short: as §1
# [12] = molecular target: Fuc(a1-2)[GalNAc(a1-3)]Gal(b1-4)Glc
# In short: as §1
# [13] = molecular target: Fuc(a1-2)[GalNAc(a1-3)]Gal(b1-4)GlcNAc
# In short: as §1
# [14] = molecular target: Fuc(a1-2)[GalNAc(a1-3)]Gal(b1-4)GlcNAc(b1-2)Man(a1-3)[Fuc(a1-2)[GalNAc(a1-3)]Gal(b1-4)GlcNAc(b1-2)Man(a1-6)]Man(b1-4)GlcNAc(b1-4)GlcNAc
# In short: as §1
# [15] = molecular target: Fuc(a1-2)[GalNAc(a1-3)]Gal(b1-4)GlcNAc(b1-3)Gal(b1-4)GlcNAc
# In short: as §1
# [16] = molecular target: Fuc(a1-2)[GalNAc(a1-3)]Gal(b1-4)GlcNAc(b1-3)Gal(b1-4)GlcNAc(b1-3)Gal(b1-4)GlcNAc
# In short: as §1
# [17] = molecular target: Fuc(a1-2)[GalNAc(a1-3)]Gal(b1-4)[Fuc(a1-3)]GlcNAc
# In short: as §1
# [18] = molecular target: Fuc(a1-2)[GalNAc(a1-4)]Gal(b1-4)GlcNAc
# In short: as §1
# [19] = molecular target: Fuc(a1-2)[GalNAc(b1-3)]Gal
# In short: as §1
# Fuc(a1-3)GlcNAc = molecular target: Fuc(a1-3)GlcNAc
# In short: as §1
# [20] = molecular target: Fuc(a1-3)[Gal(b1-4)]Glc6S
# In short: as §1
# [21] = molecular target: Fuc(a1-3)[Gal(b1-4)]GlcNAc
# In short: as §1
# [22] = molecular target: Fuc(a1-3)[Gal(b1-4)]GlcNAc(b1-2)Man(a1-3)[Fuc(a1-3)[Gal(b1-4)]GlcNAc(b1-2)Man(a1-6)]Man(b1-4)GlcNAc(b1-4)GlcNAc
# In short: as §1
# [23] = molecular target: Fuc(a1-3)[Gal(b1-4)]GlcNAc(b1-3)Gal(b1-3)[Fuc(a1-4)]GlcNAc
# In short: as §1
# [24] = molecular target: Fuc(a1-3)[Gal(b1-4)]GlcNAc(b1-3)GalNAc
# In short: as §1
# [25] = molecular target: Fuc(a1-3)[Gal(b1-4)]GlcNAc(b1-4)Gal(b1-4)[Fuc(a1-3)]GlcNAc
# In short: as §1
# [26] = molecular target: Fuc(a1-3)[Gal(b1-4)]GlcNAc(b1-4)Gal(b1-4)[Fuc(a1-3)]GlcNAc(b1-4)Gal(b1-4)[Fuc(a1-3)]GlcNAc
# In short: as §1
# [27] = molecular target: Fuc(a1-3)[Gal(b1-4)]GlcNAc(b1-6)[Gal(b1-3)GlcNAc(b1-3)]Gal(b1-4)Glc
# In short: as §1
binder,measurement,setting,value
"CLEC-1 (Homo sapiens), Q9NZH3 (protein) MQAKYSSTRDMLDDDGDTTMSLHSQASATTRHPEPRRTEHRAPSSTWRPVALTLLTLCLVLLIGLAAWGLLFFQYYQLSNTGQDTISQMEERLGNTSQELQSLQVQNIKLAGSLQHVAEKLCRELYNKAGAHRCSPCTEQWKWHGDNCYQFYKDSKSWEDCKYFCLSENSTMLKINKQEDLEFAASQSYSEFFYSYWTGLLRPDSGKAWLWMDGTPFTSELFHIIIDVTSPRSRDCVAILNGMIFSKDCKELKRCVCERRAGMVKPESLHVPPETLGEGD",glycan array binding signal (z-score),Fuc(a1-2)GlcNAc,-0.281
same,glycan array binding signal (z-score),Fuc(a1-2)[Gal(a1-3)]Gal,0.129
same,glycan array binding signal (z-score),[1],-0.221
same,glycan array binding signal (z-score),[2],-0.262
same,glycan array binding signal (z-score),[3],-0.44
same,glycan array binding signal (z-score),[4],-0.315
same,glycan array binding signal (z-score),[5],-0.135
same,glycan array binding signal (z-score),[6],0.163
same,glycan array binding signal (z-score),[7],-0.046
same,glycan array binding signal (z-score),[8],0.014
same,glycan array binding signal (z-score),[9],-0.454
same,glycan array binding signal (z-score),[10],1
same,glycan array binding signal (z-score),[11],-0.299
same,glycan array binding signal (z-score),[12],-0.202
same,glycan array binding signal (z-score),[13],-0.052
same,glycan array binding signal (z-score),[14],-0.152
same,glycan array binding signal (z-score),[15],-0.168
same,glycan array binding signal (z-score),[16],-0.297
same,glycan array binding signal (z-score),[17],-0.163
same,glycan array binding signal (z-score),[18],-0.263
same,glycan array binding signal (z-score),[19],-0.129
same,glycan array binding signal (z-score),Fuc(a1-3)GlcNAc,-0.256
same,glycan array binding signal (z-score),[20],-0.515
same,glycan array binding signal (z-score),[21],-0.06
same,glycan array binding signal (z-score),[22],0.129
same,glycan array binding signal (z-score),[23],-0.424
same,glycan array binding signal (z-score),[24],-0.019
same,glycan array binding signal (z-score),[25],0.18
same,glycan array binding signal (z-score),[26],0.063
same,glycan array binding signal (z-score),[27],0.054
